Test results taken from the supplement of paper PMC11417369.
Some of the results follow.

What follows are sequences tested on PfSIP2 AP2 domain 1 (GST-tagged) (assay: gcPBM binding intensity (ln(normalized median fluorescence intensity)); higher = stronger DNA binding).
Summary of the method: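 The highest Masliner-normalised natural-log median intensity across replicate spots of either probe orientation is reported as binding intensity. GST-tagged P. falciparum DNA-binding domains expressed in E. coli were applied for 1 h to an Agilent 4 × 180k array of primer-extended double-stranded 36-bp intergenic genomic probes plus negative controls, and bound protein was detected with Alexa488 anti-GST antibody and scanned at 488 nm.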

Point of comparison: “AAAATCCAGTTTTCAAAATTGAACAAAAAAAAAATA [GTGCAC_negctrl_site542]”, “gcPBM binding intensity (ln)” value 6.64. Against it:
- ACATGAAACTATAAACGTACATACATACATATATAT [XGTACX_site5011] — higher, 7.48
- AAGTAAAAAAATAGCACACACACAAAAACACCCACA [CACACA_site1291] — higher, 7.58
- AAAAAAAAAGGTACTACACACTATTATCAATAGAAA [CACACA_site91] — higher, 6.71
- TACTTATTATGAAACACACACCAAAACTACAGAATA [CACACA_site6265] — higher, 7.18
- CAAAATAAAAAATTCACACACATATAAATATAAATA [CACACA_site7065] — higher, 6.89
- ATTTAATTTATTATGTGTACTTATTTAATTAAATTA [XGTACX_site3171] — higher, 6.95
- TTATATATTTATAAATGTACATATAATTTTTTTATA [XGTACX_site4696] — higher, 6.92
- CTGATATATAGATGTAGTACATAAAAATGACGAATT [XGTACX_site5612] — higher, 7.13
- ATATTTTTATTTAAATCACATCATTTTGTTTATTTG [CACACA_negctrl_site1056] — higher, 6.95
- CATATAATTATTGAAAGTACATACAAATAAAAAGAT [XGTACX_site6535] — higher, 7.56
- ATATATATATGTATATGTACATATATATACACATAT [XGTACX_site140] — higher, 8.44
- TAAATATATTTATATTGTACATTTATGTTGATACCA [XGTACX_site228] — higher, 6.88
- TTTTGTGAATTTTAGATTTTTTAATACAAGAATATT [CACACA_negctrl_site606] — higher, 6.85
- ATATTTACCACTGTATGTACATATATAAAATATATC [XGTACX_site6373] — higher, 7.23
- TATATATATAATATATGTACTGATATGCTATTTACT [XGTACX_site841] — higher, 8.03
- TAAAATAAAAGTGAAACACACAGTATTTTACAACAT [CACACA_site3811] — higher, 6.7
- AAAATAGCTGTATAGAGTACATATAAATAATGTTGT [XGTACX_site5692] — higher, 6.94
- TGCAAAAAATTCCACACACACACACGCATATAAATA [CACACA_site6696] — higher, 7.27
- TTTTGAAGAAAATTCTTTTTTTTTTTTTTTTGTAAA [CACACA_negctrl_site102] — lower, 6.62
- ATATAATGACAAGTATAAGTATCACAAAGAAATAAA [CACACA_negctrl_site1403] — higher, 6.91
- CCACTTTTTGAAGACACACACAAAAAAAAAAAAAAA [CACACA_site2551] — higher, 7.23
- CAAGCTTTTTCCTTTACACACATTAATTATATATAT [CACACA_site1423] — higher, 7.08
- ATAACAATTATTTGTCGACACACGTATATGTTATTT [CACACA_site1766] — higher, 7
- CATTTTTCTATATGTGCATGTAAGATAAGAATAATT [TGCATGCA_site107] — higher, 8.22
- TCATATAATATTTATATGCACACTTTTCTATATATA [CACACA_site4075] — higher, 7.57
- TTTCGTCATTTTGTTTTTAATTCTACAATTTAGTTA [XGTACX_negctrl_site286] — higher, 7.11
- ACTTACACATTTATTACACACATAAAGGAAAATTTT [CACACA_site1356] — higher, 7.68
- ATATTTAAATGGATCACACATATATATATATATATA [CACACA_site5255] — higher, 9.78
- CACTAATAGTGGATTACACACATATATATGTATATA [CACACA_site2531] — higher, 7.18
- CGCGAAGTAGCATTCACACACAGCAAAATATATATA [CACACA_site3495] — higher, 7.11
- TACTAAAACCCATACACACACATATATATAGTACCA [CACACA_site3184] — higher, 7.05
- TTTTTAACATTTAAATGTACATGTTACAATTTAAAG [XGTACX_site8789] — higher, 6.91
- TTTTTATTTTTATACATATAATATATTATGATTAAA [CACACA_negctrl_site214] — higher, 6.94
- ACAGCATAATCATGCTGTACATTATTTTCTTAAGTA [XGTACX_site8456] — higher, 6.7
- AGAGACTTAGAAAACACACATACATAAGATAATTTA [CACACA_site2377] — higher, 6.82
- AATAAAATAATAAAAGCACACAAGAATACAGACAAA [CACACA_site112] — higher, 7.22
- ATGTAAAACATAAAATGTACATATTATACAAACTAT [XGTACX_site5797] — higher, 7.22
- TAAGTATAAATATTTACACACATTTGTTTTTTTTTA [CACACA_site7731] — higher, 6.89
- GGATAATATATTAGAACACACATATATCTGTAAAAA [CACACA_site4266] — higher, 6.84
- TAATATAATATATGCACACAAATATGTATATATGTG [CACACA_site2134] — higher, 7.85
- AACTATTTTATTATATGTACTTACGAATTTATAAAA [XGTACX_site5262] — higher, 7.04
- TAATATACATAATAATGTACATATTTTCATATATAC [XGTACX_site6913] — higher, 7.01
- CACAAAATAAATTAAACACACAACATCAGATATGTA [CACACA_site6529] — higher, 6.9
- TGTGTTGTAACAAAATGTACGAGCTTGATGTAGAAT [XGTACX_site2293] — higher, 7.48
- ATAAACTGATGTGTATGTACACATGTAATAATAAAT [XGTACX_site7649] — higher, 7.28
- AATGTAGGTTTATTTACACACAAATATAAATATATA [CACACA_site1523] — higher, 6.84
- TATTTTTCTTTATTGGTACACACGAAAAAAAAATTG [CACACA_site3054] — higher, 7.14
- AAAAAAAAATTTAAGTGTACATTCCATTTTAGTTTA [XGTACX_site5286] — higher, 6.74
- AAAATATATATGTATGTTTATATGTTTATATATATT [XGTACX_negctrl_site337] — higher, 6.97
- TCTAAGTATAAAGACACACAGAATAAAAAAAAATAT [CACACA_site2367] — higher, 7.13
- TATTTAATATATTTATGTACATATTTATTTATTATT [XGTACX_site524] — higher, 6.87
- AAGAAGCATAAATGTACACACATATTTATATATCAA [CACACA_site6743] — higher, 6.97
- AAAGGATATGGACACACACACACATATATATATATA [CACACA_site8686] — higher, 9.2
- CAACACTTATTGAAACGTACGCATATAGTTTCTTTT [XGTACX_site8960] — higher, 6.9
- TTTATTTATATTTATACACACAAACATAATACTACT [CACACA_site7039] — higher, 7.03
